This note sets out measurements from PubChem BioAssay (NCATS).

The target in assay [1] is Histamine N-methyltransferase (Homo sapiens) (UniProt P50135). Kind of assay: Confirmatory Screen for Target Class Profiling of Small Molecule Inhibitors of Methyltransferases (AID 1745852).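 Further: inhibitor potency for blocking SAH production.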 Conditions: MTase-Glo luminescence, SAH detection, recombinant enzyme; measured here: HNMT inhibition potency.
Assay [2] addresses Phenylethanolamine N-methyltransferase (Homo sapiens) (UniProt P11086). Described as above. Conditions: MTase-Glo luminescence, SAH detection, recombinant enzyme; measured here: PNMT inhibition potency.
Chain of UniProt P11086 (P11086 whole entry, looked up): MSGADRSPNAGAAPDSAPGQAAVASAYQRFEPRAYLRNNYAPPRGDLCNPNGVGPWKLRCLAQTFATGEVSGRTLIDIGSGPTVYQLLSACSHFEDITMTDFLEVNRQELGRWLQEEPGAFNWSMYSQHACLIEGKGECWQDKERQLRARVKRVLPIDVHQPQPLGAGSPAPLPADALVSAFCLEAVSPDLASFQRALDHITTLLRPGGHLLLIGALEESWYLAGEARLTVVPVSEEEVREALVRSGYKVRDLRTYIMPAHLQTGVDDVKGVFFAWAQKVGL
Assay [3] can be described thus: qHTS drug screen for cell cycle checkpoint inhibitors in PARPi-resistant BRCA-mutant ovarian cancer cell lines. (AID 1963452). Conditions: PEO1/OlaR viability, CellTiter-Glo luminescence, 96 h. The gist of the method:
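PEO1, PEO4 and PEO1/OlaR ovarian cancer cells, 600 per well, exposed 96 h at 37C to a dilution series. Viability read by CellTiter-Glo luminescence, normalized to DMSO and empty wells; activity summarized as Z-AUC.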

A short description of assay [4]: qHTS for identification of novel therapeutic agents for treatment of microphthalmiaassociated transcription factor (MiT) renal cell carcinoma (RCC) (AID 1963991). Conditions: CellTiter-Glo, 48 h; for z-score: stronger effect = lower value. Summed up:
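Curves over 11 concentrations were fitted to CellTiter-Glo luminescence, scaled between empty wells (0%) and DMSO (100%) viability. Cells were UOK109, UOK124 and UOK145 TFE3-fusion RCC lines at 500/well, exposed 48 hours at 37 C.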

The nature of assay [5]: NCATS anti-infectives library activity on the primary C. elegans qHTS viability assay (AID 1745855). Conditions: C. elegans worm area imaging, day 7, day 3. The gist of the method: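 Viability is taken from GFP fluorescence of PE254-GFP-FLuc C. elegans imaged by laser cytometry over 7 days. Ten L1 worms per well grow at 21 °C on TOP10 E. coli capsules with titrated compound; levamisole marks toxicity.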

Assay [6] in a line: qHTS assay for small molecule antagonists of peroxisome proliferator-activated receptor gamma signaling (AID 588537). Conditions: HEK293 PPARg-UAS-bla, beta-lactamase ratio, antagonist mode; measured here: W460 blue channel. Summed up:
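PPAR-gamma-UAS-bla HEK293 cells (3000/well, 1% charcoal/dextran-stripped FBS) were preincubated 6-6.5 h at 37 C, given titrated compounds, then stimulated with 50 nM rosiglitazone for 16 h. Beta-lactamase activity was read with CCF4 dye; IC50 came from Hill fits.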

For assay [7], the target named is Nicotinamide N-methyltransferase (Homo sapiens) (UniProt P40261). Kind of assay: Confirmatory Screen for Target Class Profiling of Small Molecule Inhibitors of Methyltransferases (AID 1745852).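 Further: inhibitor potency for blocking SAH production.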 Conditions: MTase-Glo luminescence, SAH detection, recombinant enzyme; measured here: NNMT inhibition potency.
Chain of UniProt P40261 (P40261 whole entry, looked up): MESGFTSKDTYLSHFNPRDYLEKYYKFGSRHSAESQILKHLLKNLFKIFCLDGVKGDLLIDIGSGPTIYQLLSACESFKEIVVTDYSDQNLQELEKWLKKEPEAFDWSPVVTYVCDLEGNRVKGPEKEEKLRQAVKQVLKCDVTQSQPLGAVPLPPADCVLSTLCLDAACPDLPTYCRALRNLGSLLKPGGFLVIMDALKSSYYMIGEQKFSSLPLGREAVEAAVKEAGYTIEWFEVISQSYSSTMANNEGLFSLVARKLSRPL
Where [8] appears, read: measured here: PEO1 parental viability.
Where [9] appears, read: TFE3-RCC UOK109 viability, measured here: UOK109 Z-AUC.
[10] abbreviates: TFE3-RCC viability, measured here: UOK124 Z-AUC.
[11] abbreviates: TFE3-RCC viability, measured here: UOK124 cell viability.
[12] abbreviates: TFE3-RCC viability, measured here: UOK145 Z-AUC.
Setting [13] is: TFE3-RCC viability, measured here: UOK145 cell viability.

SMILES strings stand for the structures. Where “and” joins values, the source holds several entries; their conditions need not be identical. Identical values can stand only once. The list shows a part of the results. Further columns of the screen follow, without active or inactive calls. For part of these data: The list favours compounds with an active or inconclusive main result. Potencies come from curve fits of mixed quality, noted in brackets.
Tags describe the fitted curve by direction and shape.

Chain of UniProt P50135 (P50135 whole entry, looked up): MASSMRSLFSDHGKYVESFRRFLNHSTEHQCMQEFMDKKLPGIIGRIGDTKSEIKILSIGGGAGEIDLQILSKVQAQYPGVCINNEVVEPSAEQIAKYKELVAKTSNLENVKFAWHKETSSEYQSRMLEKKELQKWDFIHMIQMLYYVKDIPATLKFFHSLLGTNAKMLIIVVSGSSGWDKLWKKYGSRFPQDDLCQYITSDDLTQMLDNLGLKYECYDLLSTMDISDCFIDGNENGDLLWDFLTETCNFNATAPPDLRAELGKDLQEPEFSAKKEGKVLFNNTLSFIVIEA

On to `O=C1c2ccccc2C(=O)c2c1cccc2S(=O)(=O)Nc1ccc(Cl)cc1`, for which the IC50 was 10.8 µM [falling, partial curve] in assay [1] and 24.1 µM [falling, partial curve] in assay [2].
For the compound `Cc1[nH]c2ccccc2c1CCNCc1ccc(/C=C/C(=O)NO)cc1`, the half-inhibitory concentration (IC50) in assay [1] was 12.2 µM [falling, partial curve]. For the same compound, the AC50 in assay [3] (setting [8]) was 0.195 µM [falling, full curve]; in assay [3] (measured here: PEO4 viability), 0.174 µM [falling, full curve].
In the case of `c1ccc2c(Oc3nc(Nc4ccc(N5CCOCC5)cc4)c4ncn(C5CCCCC5)c4n3)cccc2c1`, in assay [1], the IC50 is 5.41 µM [falling, full curve]. The AC50 in assay [3] (setting [8]) was 13.8 µM [falling, single point]; in assay [3] (measured here: PEO4 viability), 24.5 µM [falling, single point]; in assay [4] (setting [11]) it was 18.7 µM [falling, partial curve, poor fit]. The values for the z-score in assay [4] (setting [9]), in assay [4] (setting [10]) and in assay [4] (setting [12]) were -0.199, 0.413 and -0.0614, respectively.
`O=C(c1ccc(Nc2nccc(-c3cc4ccccc4s3)n2)cc1)N1CCC(N2CCCC2)CC1`: in assay [1], the IC50 was 17.1 µM [falling, partial curve]. Moreover, the AC50 in assay [3] (setting [8]) is 15.5 µM [falling, partial curve]; in assay [3] (measured here: PEO4 viability) it was 2.75 µM [falling, full curve]; in assay [4] (setting [11]) it was 7.43 µM [falling, full curve]; in assay [4] (setting [13]) it was 7.43 µM [falling, full curve]. Further, the figures for the z-score in assay [4] (setting [9]), in assay [4] (setting [10]) and in assay [4] (setting [12]) were -1.09, -0.494 and -0.924, respectively.
Consider `CCN(CC)Cc1ccc2cc(COC(=O)Nc3ccc(C(=O)NO)cc3)ccc2c1`, for which the IC50 in assay [1] was 24.1 µM [falling, partial curve]. For the same compound, the AC50 is 0.578 µM [falling, full curve, poor fit] in assay [5] (measured here: worm area); 16.3 µM [falling, partial curve] in assay [5] (measured here: worm number); 1.55 µM [falling, full curve] in assay [3] (setting [8]); 1.23 µM [falling, full curve] in assay [3] (measured here: PEO4 viability); 1.66 µM [falling, full curve] in assay [4] (setting [11]); 5.9 µM [falling, partial curve] in assay [4] (setting [13]). In addition, the z-score was -0.906 in assay [4] (setting [9]), -3.37 in assay [4] (setting [10]) and -0.729 in assay [4] (setting [12]).
In the case of `CN1CCc2c(n(Cc3ccc(C(=O)NO)cc3)c3ccccc23)C1`, the IC50 in assay [1] was 8.57 µM [falling, partial curve]. The z-score in assay [4] (setting [9]) is 0.383; in assay [4] (setting [10]), -0.528; in assay [4] (setting [12]) it was 0.211. For the same compound, the concentration at half-maximal activity (AC50) in assay [4] (setting [11]) is 20.9 µM [falling, partial curve]; in assay [4] (setting [13]), 26.4 µM [falling, single point].
`O=C(Nc1ccc2c(N3CCOCC3)ncnc2c1)c1cccc(Cl)c1`: the concentration for half-maximal inhibition (IC50) in assay [1] is 7.64 µM [falling, partial curve]; in assay [2], 24.1 µM [falling, partial curve, poor fit].
As for `c1cc(OCCN2CCCCC2)cc(-c2n[nH]c3ccc(-c4ncn[nH]4)cc23)c1`, the IC50 in assay [1] was 19.2 µM [falling, partial curve]. Besides, the figures for the z-score in assay [4] (setting [9]), in assay [4] (setting [10]) and in assay [4] (setting [12]) were 0.272, 0.358 and 0.409, respectively. For the same compound, the AC50 in assay [4] (setting [13]) is 37.2 µM [falling, partial curve, poor fit].
As for `CC(C)(C)CC(C)(C)c1ccc(OCCOCC[N+](C)(C)Cc2ccccc2)cc1`, in assay [6], the AC50 was 44.7 µM [rising, single point] and 50.1 µM [falling, single point]. In addition, the half-maximal inhibitory concentration (IC50) was 19.2 µM [falling, partial curve] in assay [1] and 21.5 µM [falling, partial curve] in assay [7].
`CCN1CCN(Cc2ccc(NC(=O)Nc3ccc(Oc4cc(NC)ncn4)cc3)cc2C(F)(F)F)CC1`: the half-inhibitory concentration (IC50) in assay [1] was 6.07 µM [falling, full curve]. Besides, the AC50 was 3.09 µM [falling, full curve] in assay [3] (setting [8]) and 3.09 µM [falling, full curve] in assay [3] (measured here: PEO4 viability).
Take `O=C(/C=C/c1ccc(CN(CCO)CCc2c[nH]c3ccccc23)cc1)NO`: in assay [1], the half-inhibitory concentration (IC50) was 13.7 µM [falling, partial curve]. The AC50 is 0.0916 µM [falling, full curve, poor fit] in assay [5] (measured here: worm number); 0.389 µM [falling, full curve] in assay [3] (setting [8]); 0.389 µM [falling, full curve] in assay [3] (measured here: PEO4 viability).
Turning to `CC(C)N(CCCNC(=O)Nc1ccc(C(C)(C)C)cc1)C[C@H]1O[C@@H](n2ccc3c(N)ncnc32)[C@H](O)[C@@H]1O`, the IC50 in assay [1] was 24.1 µM [falling, partial curve]. Further, the AC50 in assay [3] (measured here: PEO4 viability) is 19.5 µM [falling, single point].
Regarding `COc1cc(NC(=O)Nc2cccc(CNC(=O)O[C@H]3CCOC3)c2)ccc1-c1cnco1`, in assay [1], the IC50 is 10.8 µM [falling, partial curve]. In assay [5] (measured here: worm area), the AC50 is 0.325 µM [falling, full curve, poor fit].
